# Measured values: PMC12136788
# This is one part of the list.
# T1: UNK ZnF1-3 (human, UniProt Q9C0B0 31-174)
# T1 sequence: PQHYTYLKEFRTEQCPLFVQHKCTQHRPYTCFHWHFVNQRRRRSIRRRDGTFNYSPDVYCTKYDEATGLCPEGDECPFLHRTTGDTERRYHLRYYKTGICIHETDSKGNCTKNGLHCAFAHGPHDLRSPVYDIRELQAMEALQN
# B1: 74150939_74152420_1786_CDS_ENSG00000077809_ENST00000416070|human|control|control (ssRNA)
# RNA: GGGAGUUCUACAGUCCGACGAUCAACUUCAGUGGUACUGUGAGUCAGAAGUUCUGGUCUUUUAAUAACAAAUUUAAUUCGAUUGCCCACUUGAAUGAUUUUUUCCAGCCUUGGGAUUCCAUACCAUGAGGGACUUCGGAAAGGCAACAGAGGAUUGAGCAUCA
# B2: chr2:168009416:168009417:-_ENSMUSG00000051149_ENSMUST00000088001|perfect_dup|motif|central (ssRNA)
# RNA: GGGAGUUCUACAGUCCGACGAUCCAUAUGGUUGAGCAGAGUAUCUGUGGGUAAAUAGCGAUUACAGUAGAGGCAUUUGCGGGUAAAAUUGUGUAUUUUCAUAAUGUAGUUGGCUACUGCUGGGACUUUCUCAGCUUUAUGUUCCAACAGAGGAUUGAGCAUCA
# B3: chr17:64801638:64801639:+_ENSG00000154229_ENST00000413366|hu_mus|hu_hu_hu_mus_False|18_98 (ssRNA)
# RNA: GGGAGUUCUACAGUCCGACGAUCUAUAUAUAUAUAUAUAUACACACACAUAUAUAGUAAAACCCUAGUUAAACGUGUAAAGUAGCCAUUCAUUUUUAAAAUUACAUCUACAUUAAAAAAGUAAUCUAUCUGAUAGAGUGCCAGCAACAGAGGAUUGAGCAUCA
# B4: chr2:210598762:210598763:+_ENSG00000078018_ENST00000392194|hu_mus|motif|central (ssRNA)
# RNA: GGGAGUUCUACAGUCCGACGAUCGCAAAACAAUCACUAUACAGCAACAAAUACAUUUGCAAAUUGAUUGAAAAACAUGAACGGACGGCAACCAGCCAUUGAAGAAAUACCUUUCUAUGGUAACAGGCUCUAGAAUUAUCAGAACAACAGAGGAUUGAGCAUCA
# B5: 10357289_10363325_2175_CDS_ENSG00000054523_ENST00000377093|human|control|control (ssRNA)
# RNA: GGGAGUUCUACAGUCCGACGAUCUUGCAACUUGCUGGGAGGUAGCUUUUCUCUCAGAGAAGUAAUCAGUUUCCAGCUCUCUUCACACGACCUCUUGUCAGAAUCGUCCCCGCUAUCAGAAUCCGCGUCCAGUCUCUGCUGCUCCAACAGAGGAUUGAGCAUCA
# B6: 10098463_10102494_2252_CDS_ENSMUSG00000056763_ENSMUST00000071087|mouse|control|control (ssRNA)
# RNA: GGGAGUUCUACAGUCCGACGAUCUCUUUGUCUCUUUUCCUCAAUCUGAAAACGAAGAAAAUUCUUGUAUAAUUCUUGCUGUUUAAUCUGAAGCUCGCUGAGUGGCUCACCAAAUGUGUUUCCCCGGGCAAAAGGAGAGCUUUGCAACAGAGGAUUGAGCAUCA
# B7: chr2:179988524:179988525:-_ENSG00000187231_ENST00000428443|hu_hu|motif|central (ssRNA)
# RNA: GGGAGUUCUACAGUCCGACGAUCUAAAGUUUGCUGAAUCGAUGCUCCAUCAGCUGGUGCUACAUCUACGCACAACAUCCCGGAUAAGCCAUCCAACUGCUGAGACAAAUCUUGGGCAACACCAUGAAAUUCAAGAGCUGCUUGCAACAGAGGAUUGAGCAUCA
# B8: 41139090_41139210_2337_3pUTR_ENSMUSG00000036241_ENSMUST00000040008|mouse|control|control (ssRNA)
# RNA: GGGAGUUCUACAGUCCGACGAUCCGAAUCUUAAGCCCUAUCCUUGAAGUCUGGCUUUACUUAGACAGUUUGCUAAACAAAACCCUCUUUCAAGUCUAGGAUGAAGCUACCGGAGCUCAGGCUUGGGGGAGCCACGUGUGACUGCAACAGAGGAUUGAGCAUCA
# B9: chr11:78372574:78372575:-_ENSG00000149256_ENST00000278550|hu_mus|FALSE|FALSE (ssRNA)
# RNA: GGGAGUUCUACAGUCCGACGAUCUUUCAUCUGUGUGUGUACGAGCUCGUAGGAGGGUUCCAUGGCAUCUGUGUCUGGCUUGGGAUAGCCAGGUAUCACGUUGUGCAGCUGGAAUCCAAAGGUGAGGAGCCAGCUGUUGACAUCCAACAGAGGAUUGAGCAUCA
# B10: 29097236_29097356_835_3pUTR_ENSMUSG00000024782_ENSMUST00000025696|mouse|control|control (ssRNA)
# RNA: GGGAGUUCUACAGUCCGACGAUCUCUUAGGAAAAGAGCUUUGAGAUACAGAGGCAAGAAGAGGAGAGGAGGCCCUGCCUCAUCCUGCCAGUUGCUGCCCUCUUCAGGGAGUAACAGAGGCCUUUUGGGUAGUUUCUGGAACUUCAACAGAGGAUUGAGCAUCA
# B11: chr11:18503389:18503390:-_ENSG00000074319_ENST00000251968|hu_mus|motif|central (ssRNA)
# RNA: GGGAGUUCUACAGUCCGACGAUCAUUUUCCAUUUUCUCCAGAGCAGAACUUAGUUCUUCAUCCUUCUUUUUCAAAAGUUCGGUGUUUUUAUCAACUUCAGCUACUUCUUGAUCUAAGCGGGUGACCAUCUCUUCCAGUUUCUGCAACAGAGGAUUGAGCAUCA
# B12: 71491005_71491125_2181_3pUTR_ENSG00000131711_ENST00000296755|human|control|control (ssRNA)
# RNA: GGGAGUUCUACAGUCCGACGAUCUCUUCAGGCUUUACCUUUGUUUCCUUUUUCACCGUCUUCUCCUUGGCAGCUUUGGGUUUGACAUCUGUGGCUUGCUUCUCAGCCACCUCGGCUUUCACUGGAGAUGGCUCUUCUUUGCUGCAACAGAGGAUUGAGCAUCA
# B13: chr11:75578393:75578394:+_ENSMUSG00000020849_ENSMUST00000067664|mus_mus|FALSE|FALSE (ssRNA)
# RNA: GGGAGUUCUACAGUCCGACGAUCCAAUACAGUAAUGCUGAAAAAGCCUCUAUGCAGUCCUGUUAGUGUCGUAAAGAACCUAAAGCUGGGACCAGUAAAAUCCACAGAAAUUCACUCUUGCCUUAAGAACUUCUGAAAACUGUUCAACAGAGGAUUGAGCAUCA
# B14: chr15:23003119:23003120:+_ENSG00000068793_ENST00000560848|hu_mus|FALSE|FALSE (ssRNA)
# RNA: GGGAGUUCUACAGUCCGACGAUCUUAUAAAGUUAAGCUUUCAGAUCAAAAGUAGGUUCAGACAUAAUGGAAAAUAGCCCCUAAAAAUUUCAAUAUAGUUUACAUAAAGACAAACAUGCCAUCAGUUACUGGGAUGCUGUGAGCCAACAGAGGAUUGAGCAUCA
# Biological target: T1, UNK ZnF1-3
# Test: nsRBNS (natural sequence RNA bind-n-seq); RBNS binding buffer (assumed for nsRBNS): 25 mM Tris pH 7.5, 150 mM KCl, 3 mM MgCl2, 0.01% Triton X-100, 500 ug/ml BSA, 20 U/ml SUPERase-In, 4 C; UNK is unkempt and MSI1 is Musashi-1; names of the RNAs are library labels; protein concentration not given here; high values mean tight binding
row,Binder,binding signal [enrichment R]
1,B1,1.15
2,B2,2.18
3,B3,1.95
4,B4,1.64
5,B5,0.843
6,B6,1.06
7,B7,1.16
8,B8,0.584
9,B9,0.795
10,B10,0.818
11,B11,0.432
12,B12,0.281
13,B13,1.17
14,B14,2.11
